Reference: PubChem BioAssay AID588855 (National Center for Advancing Translational Sciences (NCATS), 2011)
The whole screen tested about 410,000 compounds, of which about 5,000 (1.2%) were called active. The inconclusive results got no clear call from the source; some entries with a clear call stand among them for comparison. The call rests on the fitted dose curve; in most records, active means well fitted inhibition curve with a large enough effect; inconclusive means small, poorly fitted or top-dose-only effect; inactive means no such curve, though single readings can be large or run the other way. Where the call is inconclusive, the potency comes from a doubtful curve fit.

Assay: qHTS for Inhibitors of TGF-b; further: nearly all actives have a fitted effect of over 65% in size
Settings: HepG2 CAGA-GFP TGF-b/SMAD3 reporter, GFP fluorescence, 18 h, TGF-beta stimulated, 500 pg/mL final; series mostly up to 46.1 µM; activity, negative = inhibition: at the top concentration
Procedure, shortened: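 Inhibition was scored as loss of TGF-beta-induced (500 pg/mL final, 18 hours, 37 degrees C) GFP in HEPG2 cells carrying a CAGA-GFP reporter, in DMEM with 1% FBS. Well GFP was summed per cell; Activity was normalised to unstimulated and stimulated DMSO wells, then concentration-response fitting.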
On the % scale 0 is the no-effect control and ±100 the full control effect; potency means the concentration at half of the fitted maximal effect; tags describe the fitted curve by direction and shape.

Compound	Potency	activity, negative = inhibition
CCOC(=O)c1c(N)sc(C(=O)N2CCCCCC2)c1C	inconclusive: 12.6 µM [inhibitor, single point]	
COc1ccc(CCC(=O)NCCc2csc(-c3ccc(Cl)cc3)n2)cc1	inconclusive: 2 µM [inhibitor, full curve]	
CC1CC(=O)NN1C(=O)c1ccccc1 (stereo unspecified)		inactive: -19%
COc1ccccc1NC(=O)c1sc2nc(C)c(C(=O)Nc3ccc(C)cc3C)c(-c3ccc(C)o3)c2c1N		inactive: -0.394%
CC1CN(S(=O)(=O)c2cc(C(=O)NCCC3=CCCCC3)ccc2Cl)CC(C)O1 (stereo unspecified)		inactive: -15.1%
O=C1c2ccccc2C(=O)c2c1oc(C(F)(F)F)c2C(=O)c1ccccc1	active: 1.12 µM	
Cc1nc2ccccc2c2nc(NC(=O)C(F)(F)F)nn12	inconclusive: 15.8 µM [inhibitor, single point]	
CC(C)(C)c1ccc(C(=O)N2CCC2(C)C(=O)NCc2cccc3ccccc23)cc1 (stereo unspecified)	inconclusive: 35.5 µM [inhibitor, single point]	
COc1ccc(C(CCNCc2ccc(N(C)C)cc2)c2ccccc2)cc1 (stereo unspecified)	inconclusive: 22.4 µM [inhibitor, single point]	
COc1ccc(Cn2nnnc2C(c2cccs2)N2CCCCCC2)cc1 (stereo unspecified)	inconclusive: 35.5 µM [inhibitor, single point]	
O=C(NCC1CCCO1)c1cccc(S(=O)(=O)Nc2ccc(SC(F)F)cc2)c1 (stereo unspecified)		inactive: 5.68%
O=C(CN(Cc1ccco1)Cc1ccco1)Nc1cc(S(=O)(=O)N2CCCCC2)ccc1Cl	inconclusive: 14.1 µM [inhibitor, single point]	
Cn1nnc(NC(=S)NC(=O)c2ccc(-c3ccc(Br)cc3)o2)n1	inconclusive: 5.62 µM [inhibitor, partial curve, poor fit]	
Cc1cc(C(=O)N2CCCC(N3CCN(c4ccc(F)cc4)CC3)C2)no1 (stereo unspecified)	inconclusive: 0.794 µM [inhibitor, full curve]	
CC[n+]1c(/C=C/Nc2ccccc2)sc2ccccc21		inactive: -14.6%
Cc1sc2ncnc(N(C)C3CCCCC3)c2c1C	inconclusive: 0.398 µM [inhibitor, full curve]	
COc1ccccc1C(=O)Nc1ccnn1C1CCN(Cc2cc(C)c(C)cc2C)CC1	inconclusive: 0.126 µM [inhibitor, full curve, poor fit]	
O=C(Nc1ccc(N2CCOCC2)c(Cl)c1)c1ccccc1Cl		inactive: 3.04%
COc1ccccc1NS(=O)(=O)c1cccc(NC(=O)Nc2ccc(Cl)cc2)c1	inconclusive: 31.6 µM [inhibitor, partial curve, poor fit]	
O=C(COc1ccc(Cl)cc1)N1CCN(S(=O)(=O)c2ccc(Cl)cc2)CC1	inconclusive: 35.5 µM [inhibitor, single point]	
CC1(C)Cc2ccccc2/C(=C/C(=O)N2CCCCCC2)N1	inconclusive: 7.94 µM [inhibitor, partial curve, poor fit]	
O=C(NC1CCCCC1)c1ccc2c(c1)N(Cc1ccc(Cl)cc1)C(=O)c1ccccc1S2=O (stereo unspecified)	inconclusive: 4.47 µM [inhibitor, partial curve, poor fit]	
CC(C)Cc1cc(C(=O)N2CCN(c3ccc(F)cc3)CC2)no1	inconclusive: 4.47 µM [inhibitor, full curve, poor fit]	
CCN(C(=O)C1CCN(c2ncnc3c2nc2n3CCCCC2)CC1)c1cccc(Cl)c1	active: 11.2 µM	

Compound	Potency	activity, negative = inhibition
O=c1c2cc(Cl)cc(Cl)c2nc2n1CCC2		inactive: 4.07%
CC1(C(=O)Nc2ccc3ccccc3c2)CCC(=O)N1C1CCN(Cc2ccccc2)CC1 (stereo unspecified)	inconclusive: 35.5 µM [inhibitor, single point]	
Cc1cccc(N2CCN(c3nc4ccc(C)cc4n4cnnc34)CC2C)c1 (stereo unspecified)		inactive: 19%
COc1ccc(-n2ccnc(NCc3ccc(C)cc3)c2=O)cc1OC		inactive: -4.76%
COc1cccc(/C=N/n2nnnc2N)c1OCC#N	inconclusive: 0.562 µM [inhibitor, full curve]	
COc1ccc(N2CCN(C(=O)c3cc(S(=O)(=O)N4CCC(C)CC4)cn3C)CC2)cc1	inconclusive: 22.4 µM [inhibitor, single point]	
CC(C)N(C(=O)CSc1nc2ccccc2n1Cc1ccc(F)cc1)C(C)C	inconclusive: 35.5 µM [inhibitor, single point]	
O=C(C1CCN(S(=O)(=O)c2cccc3cccnc23)CC1)N1CCN(c2ccc(Cl)cc2)CC1	inconclusive: 11.2 µM [inhibitor, single point]	
COc1ccc(-c2csc3ncnc(N4CCN(S(=O)(=O)c5ccc(C)c(C)c5)CC4)c23)cc1		inactive: 6.13%
CSCCC(=O)N(C)CC1CCN(CCc2cccc(C(F)(F)F)c2)CC1		inactive: -5.46%
CCN1CCN(CCCNC(=O)c2ccc3nc(Cc4ccccc4)oc3c2)CC1	inconclusive: 5.01 µM [inhibitor, full curve, poor fit]	
CSc1ccc(CN2CCC2(C)C(=O)Nc2cccc(Oc3ccccc3)c2)cc1 (stereo unspecified)		inactive: 1.27%
COc1ccccc1C1CCN(c2ccc([N+](=O)[O-])c(OC)c2)CC1	inconclusive: 14.1 µM [inhibitor, partial curve, poor fit]	
Cc1ccc(N2CCN(C(=S)c3ccc(-c4ccccc4[N+](=O)[O-])o3)CC2)cc1	inconclusive: 8.91 µM [inhibitor, partial curve]	
CCCNC(=O)C1(C)CCCN(Cc2cccc3ccccc23)C1 (stereo unspecified)		inactive: -6.19%
CCCN(CC(=O)Nc1ccccc1C)C(=O)CCl	active: 5.62 µM	
CCOc1ccc(S(=O)(=O)N2CCCCC2)cc1NC(=O)CN1CCCC1c1cccs1 (stereo unspecified)	inconclusive: 10 µM [inhibitor, partial curve, poor fit]	
O=[N+]([O-])c1cccc(CSc2ncnc3ccccc23)c1		inactive: -18.7%
COc1ccc(-n2c(SC(CN3CCCCC3)CN3CCCC3=O)nc3ccccc3c2=O)cc1 (stereo unspecified)		inactive: 2.49%
O=C(O)c1ccc2ncsc2c1		inactive: 8.59%
Cc1ccc(NC(=O)c2oc3ccc(S(=O)(=O)N4CCC5(CC4)OCCO5)cc3c2C)c(C)c1	inconclusive: 20 µM [inhibitor, single point]	
O=C1CCN(S(=O)(=O)c2cc(C(F)(F)F)ccc2Cl)CC1		inactive: 2.64%
O=C(CSc1nnc(CNC(=O)c2ccco2)o1)Nc1nc2ccccc2s1		inactive: -7.29%
C[C@@H](C(=O)Nc1ccc2ccccc2c1)[C@@H]1C[C@@]1(C)[C@@H](N)c1ccccc1	inconclusive: 10 µM [inhibitor, partial curve]	

Compound	Potency	activity, negative = inhibition
CS(=O)(=O)c1ccc(Cl)c(NC(=O)CSc2nnc(-c3cccs3)n2N)c1		inactive: 9.11%
CC(=O)Nc1ccc(Nc2nnc(-c3ccc(C)c(S(N)(=O)=O)c3)c3ccccc23)cc1	inactive	
O=C(Nc1ccc(C(=O)N2CCC(O)(c3ccc(Cl)c(C(F)(F)F)c3)CC2)cc1)c1ccc(Br)o1	inconclusive: 35.5 µM [inhibitor, single point]	
COc1ccc(OC(C)C(=O)Nc2ccccc2C(F)(F)F)cc1 (stereo unspecified)	inconclusive: 22.4 µM [inhibitor, single point]	
CCC(=O)N1N=C(c2c(-c3ccccc3)c3cc(Cl)ccc3[nH]c2=O)CC1c1ccco1 (stereo unspecified)		inactive: -23.4%
CSc1cccc(NC(=O)C2CCN(S(=O)(=O)c3ccc4[nH]c5c(c4c3)CCCCC5)CC2)c1	inconclusive: 1 µM [inhibitor, partial curve, poor fit]	
CCOc1cc(S(=O)(=O)NCc2ccc3c(c2)OCO3)ccc1F	inconclusive: 10 µM [inhibitor, partial curve, poor fit]	
CCOC(=O)Cc1csc(NC(=O)c2cc(C)c(C)s2)n1	inconclusive: 35.5 µM [inhibitor, single point]	
CCOC(=O)c1ccc(CN(Cc2ccc(C)cc2)S(=O)(=O)c2ccc(NC(C)=O)cc2)cc1	inconclusive: 35.5 µM [inhibitor, single point]	
CCCCN1C(=O)N(c2ccccc2Cl)C(C)(O)CC1(C)C (stereo unspecified)		inactive: -11.9%
CCOC(=O)C1=C(C)C/C(=N\NC(=O)c2ccccc2O)CC1		inactive: -13.8%
COc1ccc(C)cc1NC(=O)Cn1c(=O)oc2cc(S(=O)(=O)NCc3ccccc3)ccc21	inconclusive: 14.1 µM [inhibitor, single point]	
Cc1cc(OCCCCn2ccnc2)cc(C)c1Cl		inactive: -1.11%
COc1ccc2c(c1)c1c(c(=O)n(Cc3ccccc3)c(=O)n1CC(=O)Nc1ccc(C)cc1C)n2C		inactive: -3.27%
CC1CN(CC(O)COC2CCC(C(C)(C)C)CC2)CC(C)O1 (stereo unspecified)		inactive: 0.633%
CC(C)(C)n1ncc2c(=O)n(Cc3cccc(C(F)(F)F)c3Cl)cnc21		inactive: -1.43%
CC(C)Cn1c(CNC(=O)c2ccccc2)nc2ccccc21		inactive: -20.8%
Cc1ccc(S(=O)(=O)N(C)C)cc1NC(=O)COC(=O)c1ccc2c(c1)OCCO2	inconclusive: 35.5 µM [inhibitor, single point]	
CCCCn1c(SCC(=O)NCc2ccccc2)nc2ccc(N3CCOCC3)cc2c1=O		inactive: -3.17%
Cc1cccc(C)c1NC(=O)c1ccc(-c2ccc(Cl)cc2Cl)o1	inconclusive: 3.98 µM [inhibitor, partial curve, poor fit]	
O=C(Nc1ccc(Cl)cc1)Nc1cnccn1	inconclusive: 25.1 µM [inhibitor, single point]	
COC(=O)c1ccc(Cn2c(SCC(=O)N(C)c3ccccc3)nc3ccccc32)cc1	inconclusive: 35.5 µM [inhibitor, single point]	
CS(=O)(=O)N1CCN(c2ccccc2NC(=O)Nc2cccc(Cl)c2)CC1	inconclusive: 22.4 µM [inhibitor, single point]	
